# From PubChem BioAssay AID588342 (National Center for Advancing Translational Sciences (NCATS), 2011)
# Screen size: about 360,000 compounds; about 25,000 (6.9%) were called active. The shares of active, inactive and inconclusive entries below differ from those in the screen. The call rests on the fitted dose curve; in most records, active means well fitted inhibition curve with a large enough effect; inconclusive means small, poorly fitted or top-dose-only effect; inactive means flat fitted curve, though single readings scatter. Where the call is inconclusive, the potency comes from a doubtful curve fit.
# Molecular target: Luciferin 4-monooxygenase (Photinus pyralis) (UniProt P08659)
# UniProt P08659, sequence (P08659 whole entry, looked up): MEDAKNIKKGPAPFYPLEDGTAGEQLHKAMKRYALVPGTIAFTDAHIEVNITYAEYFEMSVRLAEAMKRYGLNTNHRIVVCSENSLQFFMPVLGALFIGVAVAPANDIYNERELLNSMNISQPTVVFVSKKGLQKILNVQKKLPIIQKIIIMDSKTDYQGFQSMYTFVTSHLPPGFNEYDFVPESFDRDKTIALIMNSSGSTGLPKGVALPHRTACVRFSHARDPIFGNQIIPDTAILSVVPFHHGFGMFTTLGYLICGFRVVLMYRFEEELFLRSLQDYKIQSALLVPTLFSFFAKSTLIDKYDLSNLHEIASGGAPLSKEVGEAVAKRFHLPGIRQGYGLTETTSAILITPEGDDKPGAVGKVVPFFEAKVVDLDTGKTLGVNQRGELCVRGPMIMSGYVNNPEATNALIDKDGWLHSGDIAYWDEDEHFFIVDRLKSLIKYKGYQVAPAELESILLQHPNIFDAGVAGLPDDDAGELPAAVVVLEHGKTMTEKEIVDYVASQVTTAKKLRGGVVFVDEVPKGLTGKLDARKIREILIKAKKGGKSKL
# Assay: qHTS profiling assay for firefly luciferase inhibitor/activator using purifed enzyme and Km concentrations of substrates (counterscreen for miR-21 project); further: nearly all actives have a fitted effect of over 55% in size;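 on activity change, negative = inhibition: plate controls were vehicle for no effect and reference inhibitor for full effect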
# Conditions: purified FLuc, luminescence inhibition; series mostly up to 57.5 µM; activity change, negative = inhibition: at the top concentration
# How it was run: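 Purified P. pyralis luciferase (10nM final) with 10uM D-luciferin and 10uM ATP (Km levels) in 50mM Tris acetate pH 7.5, 10mM Mg acetate, 0.01% Tween-20, 0.05% BSA; qHTS 6-point titration, ~60 µM downward; luminescence read.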
# Potency means the concentration at half of the fitted maximal effect; tags describe the fitted curve by direction and shape.
Compound,Potency,"activity change, negative = inhibition"
CCCCOc1ccc(C(=O)Nc2cccc(C)n2)cc1,active: 3.01 µM,
CC1Sc2ccc(S(=O)(=O)CCC(=O)NCc3ccccc3)cc2NC1=O (configuration not stated),,inactive: -2.78%
O=C(O)C1CCN(C(=O)COc2ccc(Br)cc2)CC1,"inconclusive: 16.9 µM [inhibitor, partial curve]",
CCCOc1ccc(-c2cn3ccccc3n2)cc1[N+](=O)[O-],active: 1.69 µM,
CCCc1cc(C(=O)NCCc2ccccc2)no1,active: 21.3 µM,
Cc1cc(C)n(-c2nc(NCC3CCCO3)c3c4c(sc3n2)COC(C)(C)C4)n1 (configuration not stated),"inconclusive: 26.9 µM [inhibitor, single point]",
COc1cc2c(cc1NC(=O)c1cccnc1)oc1ccccc12,active: 15.1 µM,
COc1cccc(NC(=O)C(=O)N/N=C(\C)CC(=O)Nc2ccc(NC(C)=O)cc2)c1,active: 10.7 µM,
COc1ccc(-c2nnc(SCCOc3ccccc3C)o2)cc1OC,"inconclusive: 8.49 µM [inhibitor, partial curve]",
O=C(CCc1ccc(S(=O)(=O)NC2CCCCC2)cc1)NCc1ccccn1,"inconclusive: 23.9 µM [inhibitor, single point]",
Cc1cc(-c2ccc(S(=O)(=O)Nc3ccc(Cl)cc3)cc2)on1,"inconclusive: 30.1 µM [inhibitor, single point]",
Cc1[nH]c2ccc(-c3nnc(SCC(=O)c4ccccc4F)o3)cc2c1C,"inconclusive: 16.9 µM [inhibitor, partial curve, poor fit]",
Cn1c(=O)c2c(ncn2CC(=O)Nc2nc3ccc(F)cc3s2)n(C)c1=O,"inconclusive: 23.9 µM [inhibitor, partial curve, poor fit]",
Cc1ccc(NC(=S)C2=C(O)c3ccccc3N(C)S2(=O)=O)cc1,active: 19 µM,
C/C(=N\NC(=O)c1ccc(C(=O)N/N=C(\C)c2ccco2)o1)c1ccco1,"inconclusive: 23.9 µM [inhibitor, partial curve]",
Cc1ccc(CC(=O)N/N=C/c2ccc3c(c2)OCO3)cc1,"inconclusive: 10.7 µM [inhibitor, partial curve]",
COc1ccc(OCC(=O)Nc2ccc(C)c(S(=O)(=O)N(C)C)c2)cc1,"inconclusive: 26.9 µM [inhibitor, single point]",
CCOC(=O)c1c(C)[nH]c(C)c1C(=O)CSc1nnc(-c2ccncc2)n1Cc1ccccc1,,inactive: -0.0458%
COc1ccc(NC(=O)Nc2cccc(C(=O)N3CCOCC3)c2)cc1OC,"inconclusive: 37.9 µM [inhibitor, single point]",
CCOC(=O)Cc1nnc(Nc2ccc(C)cc2)c2ccccc12,"inconclusive: 26.9 µM [inhibitor, single point]",
CS(=O)(=O)Nc1ccc(C2=NN(S(C)(=O)=O)C(c3ccc4c(c3)OCO4)C2)cc1 (configuration not stated),active: 9.53 µM,
CSc1ncccc1C(=O)OCc1ccc(Br)cc1,"inconclusive: 23.9 µM [inhibitor, partial curve, poor fit]",
COc1ccc(N(C=O)C(=S)SC)cc1,"inconclusive: 30.1 µM [inhibitor, single point]",
O=C(O)c1sccc1SCc1ccc(Cl)cc1Cl,"inconclusive: 19 µM [inhibitor, single point]",

Compound,Potency,"activity change, negative = inhibition"
CC(C)S(=O)(=O)c1ccc(C(=O)Nc2ccc(F)cc2F)cn1,,inactive: 1.63%
Cc1nn(-c2ccccc2)c(C)c1C(=O)NCCc1ccccc1,"inconclusive: 26.9 µM [inhibitor, partial curve]",
CC1=NN2C(=N)/C(=C\c3cc(C)n(-c4ccccc4)c3C)C(=O)N=C2S1,active: 4.78 µM,
COCCNC(=O)C(c1ccc(C)cc1)N(Cc1ccco1)C(=O)CCC(=O)Nc1ccccn1 (configuration not stated),,inactive: -0.659%
O=C(O)c1ccc(NS(=O)(=O)c2ccc3c(c2)C2C=CCC2C(c2ccccc2F)N3)cc1 (configuration not stated),"inconclusive: 23.9 µM [inhibitor, single point]",
O=P(O)(O)c1cc(-c2ccccc2)oc1-c1ccccc1,"inconclusive: 26.9 µM [inhibitor, single point]",
Cc1ccc(O)c(-c2cc3ccccc3[nH]2)c1,active: 26.9 µM,
CC(C)(C)c1ccc(OCCC(=O)OCC(=O)Nc2cccnc2Cl)cc1,"inconclusive: 16.9 µM [inhibitor, partial curve]",
N#C/C(=C/c1ccc(N2CCCCCC2)o1)c1cccc(F)c1,active: 5.36 µM,
O=C(O)c1cccc(-n2c(O)c(C=C3N=c4ccccc4=N3)sc2=S)c1,active: 13.5 µM,
COC(=O)Cn1nnc(-c2cccc(OC)c2)n1,active: 26.9 µM,
CCOc1ccc(C(=O)Oc2c(Sc3ccccc3)c(C)nn2C(C)(C)C)cc1OCC,,inactive: -0.023%
CC(/C=C/c1ccccc1)=N\Nc1nc(C)cc(C)n1,"inconclusive: 26.9 µM [inhibitor, single point]",
COc1ccc(NC(=S)N2CCC(c3ccccc3)C2)cc1 (configuration not stated),active: 6.75 µM,
CC(C)c1ccc(Nc2nnc(SCC(=O)Nc3ncc(S(=O)(=O)c4ccc([N+](=O)[O-])cc4)s3)s2)cc1,active: 0.849 µM,
COc1ccc(CN(Cc2ccco2)C(=O)COc2ccccc2OC)cc1,,inactive: -19.7%
COc1ccccc1-n1cc(C(=O)c2cc(Cl)ccc2O)cc(C#N)c1=O,"inconclusive: 26.9 µM [inhibitor, partial curve, poor fit]",
CCc1ccc2nc(N(CCN(C)C)C(=O)c3ccc4ncsc4c3)sc2c1,active: 13.5 µM,
Cc1ccc2c(C)c(C(=O)N3CCN(c4ncccn4)CC3)oc2c1C,"inconclusive: 23.9 µM [inhibitor, single point]",
COc1cccc(-c2cc(C(=O)NCc3ccc(F)cc3)no2)c1,,inactive: -11.9%
COc1ccccc1/C=C1\SC(=S)N(NS(=O)(=O)c2ccccc2)C1=O,"inconclusive: 26.9 µM [inhibitor, partial curve, poor fit]",
Cc1ccc(-c2nc(NC(=O)CSc3nnc(C)s3)ns2)cc1,active: 19 µM,
CCSc1nnc(NC(=O)[C@@H](NC(=O)c2ccc(C(C)(C)C)cc2)C(C)C)s1,"inconclusive: 26.9 µM [inhibitor, partial curve, poor fit]",
